The other results are listed elsewhere or left out. At the low end of the ranking, values are background and their order means little.

The assay concerns the target SIX1-Q177R homeodomain (UniProt Q15475). Nature of the assay: universal protein binding microarray. As to conditions: Universal all-10-mer PBM (8x60K, AMADID 030236), 300 nM GST-tagged protein, Alexa Fluor 488 anti-GST; buffer, salt, pH and temperature not stated; high values mean tight binding; most listed sequences are background and not binding sites; double strand, one strand shown.
Consider GCTAACCA, for which the binding signal is -0.085 E-score.

On to AGTATAGA, for which the binding signal is -0.159 E-score. Take AATGATAA: the binding signal was -0.134 E-score. With CGGGGCGA the figure was 0.088 E-score.

As to GGCTTGCA, the binding signal was -0.0695 E-score. As for CAGGGTAA, the figure is 0.21 E-score; as for AGAACTCA, -0.217 E-score; as for CAGATCGA, -0.0533 E-score. With CGAAAATC, the binding signal stood at 0.0717 E-score. ACGTTCCA: the binding signal is -0.0354 E-score. With CCGAATGC the figure was -0.128 E-score; with CCTATTCG, -0.042 E-score. Turning to CAGCGGGG, the binding signal was determined as 0.194 E-score. As for AACCGGAC, the figure is 0.0553 E-score. Consider AGCGAGCG, for which the binding signal was -0.0222 E-score.

For CCAGAGGC, the binding signal was -0.179 E-score. Consider GTACAAAC, for which the binding signal is -0.0177 E-score. With ACACACTG the figure was 0.248 E-score; with CCAGACAA, -0.0652 E-score. With AACACCGC the figure was 0.476 E-score; with ACGAGCAC, 0.226 E-score; with AGAGGCCT, -0.231 E-score. Regarding CTGTTAAC, the binding signal stood at 0.0494 E-score. As for AACTAGAC, the figure is 0.0897 E-score; as for AGGTGCTC, 0.158 E-score; as for GAGATATC, -0.0283 E-score. For the sequence AATACCGA, the binding signal was -0.128 E-score. As for AAAACTCG, the figure is 0.00573 E-score; as for CTAGGGAA, 0.0589 E-score. AAGCTCCG: the binding signal is -0.199 E-score. With AATTCAGC the figure was -0.197 E-score; with AATCACGG, -0.0798 E-score; with CTACCCTA, 0.0623 E-score. As for CAATGATG, the figure is -0.231 E-score. Take ACTTCCCT: the binding signal was -0.171 E-score. In the case of AACAAGTT, the binding signal is -0.218 E-score. With AAAGACCG the figure was -0.269 E-score; with CATAGAAG, -0.0123 E-score; with GTTAGTTA, -0.0375 E-score. As for CCAGGGAG, the figure is 0.0724 E-score; as for CGTACACG, 0.405 E-score; as for AGCGTGAC, 0.0818 E-score. Turning to TGCTACAA, the binding signal worked out at 0.0102 E-score. As for GAAGCTTC, the figure is -0.345 E-score; as for GAGGCCAC, -0.158 E-score. Turning to AGGGGGAT, the binding signal is 0.23 E-score. GGGATGGA: the binding signal was -0.00959 E-score. As for TCAAATAA, the figure is -0.155 E-score; as for GTCAAGAA, -0.0991 E-score; as for GCGACAAA, -0.119 E-score.

Take CGTGTCGA: the binding signal came out at 0.404 E-score. With CGACATTC the figure was 0.00988 E-score; with CGTCCTCC, 0.0102 E-score; with ACATTCTA, -0.174 E-score. With AGGACGTA the figure was -0.0746 E-score; with CTTAAATA, -0.116 E-score; with CGTCGGGC, 0.0238 E-score. As for CCAGTGAC, the figure is 0.0252 E-score; as for TGAGAGAA, -0.309 E-score; as for AAGGCCTC, -0.185 E-score. AATATATA: the binding signal was 0.0933 E-score. With ACAGTTGG, the binding signal is -0.108 E-score. With GTTCATCA the figure was -0.091 E-score; with CCGTTTGA, -0.0414 E-score.

Take AAGGTGCC: the binding signal was -0.0584 E-score. On to CTTGCCAA, for which the binding signal is -0.0256 E-score. In the case of CGCGAGAA, the binding signal is -0.0524 E-score. On to CAAGGAAG, for which the binding signal is -0.0601 E-score. As for ACCACTCA, the figure is 0.117 E-score; as for GCTTGCTA, -0.2 E-score. As for TAAGGGGA, the figure is 0.0595 E-score; as for AGAGTCGG, 0.104 E-score.

Consider GACGAGAC, for which the binding signal is -0.0908 E-score. With ACAGCCAG the figure was 0.0248 E-score; with ATTAAACG, -0.133 E-score; with CGCTGCTC, -0.0178 E-score. With AACCATCG the figure was -0.0548 E-score.

For the sequence ACCGTCAT, the binding signal is -0.00641 E-score. With GAATAGTC the figure was -0.154 E-score; with AAGACGAC, 0.0972 E-score; with TGCCCTAA, -0.0768 E-score.

On to CGCTAGCC, for which the binding signal is -0.261 E-score.

Take CGCACACC: the binding signal came to 0.395 E-score. As to AAAGAAAA, the binding signal is -0.0465 E-score. On to CCCTGTGC, for which the binding signal amounted to 0.104 E-score. As for CGATTTTA, the binding signal was -0.236 E-score.

For the sequence CCGTGTAC, the binding signal was 0.438 E-score. Regarding CTCTTGTA, the binding signal was -0.0983 E-score. As to CCTCAGAG, the binding signal amounted to 0.0207 E-score. For GCGGTTCA, the binding signal is -0.0469 E-score.

In the case of CGGTCGAC, the binding signal worked out at 0.151 E-score.

As to CCACTCAC, the binding signal was -0.00402 E-score. With GAGCATGA the figure was -0.204 E-score. With GATTCCCC the figure was 0.0504 E-score. With AGGTGCTG the figure was 0.142 E-score; with ATTACACA, 0.291 E-score.

Take CCAATGCG: the binding signal is -0.091 E-score. With CTATCCAC the figure was 0.101 E-score; with CGAGAGTA, -0.00616 E-score; with GGGATAGA, -0.0382 E-score. With AAGTTTCA the figure was -0.121 E-score; with AGATTTAG, -0.00392 E-score. As for AAAAGTGT, the binding signal came to 0.274 E-score. As for CGGTGTGC, the figure is 0.381 E-score. As for AATTTCAT, the figure is -0.253 E-score; as for TCCTTGCA, -0.182 E-score. As for GATAGAAA, the binding signal was -0.0956 E-score. With GAGGCGGC the figure was -0.115 E-score; with TGGACACA, 0.252 E-score.

For the sequence GCGTGACC, the binding signal is -0.071 E-score. On to GGTCATAA, for which the binding signal is -0.121 E-score.

ATACATCA: the binding signal was -0.0716 E-score. As for AAACGCTG, the figure is -0.17 E-score. Regarding ATCTAACG, the binding signal is -0.238 E-score.

As to CCCAGCAG, the binding signal is -0.15 E-score. With ACACCTGC, the binding signal amounted to 0.458 E-score. With CGACCCTA the figure was 0.0377 E-score; with AATCATGT, 0.0658 E-score. In the case of AGCTATAC, the binding signal came out at 0.0159 E-score. With ATACGTTG the figure was -0.114 E-score; with AGGCCCCT, -0.122 E-score; with ACACTGCG, 0.383 E-score. For the sequence CTGGGAAC, the binding signal is 0.0295 E-score. As for GGGTCGAC, the figure is 0.0998 E-score. With CACGGCTC the figure was 0.154 E-score; with CTTATAGA, -0.0518 E-score; with ATATCCAT, -0.216 E-score. For CAGGAACG, the binding signal was -0.171 E-score. Regarding CATCAGGA, the binding signal was -0.194 E-score. As for ACCAGCAT, the figure is 0.0555 E-score; as for AACTCAAG, -0.205 E-score; as for ACTAGGCG, 0.0177 E-score. On to CACGGGAA, for which the binding signal turned out to be 0.135 E-score. With CGCTGTGA the figure was -0.0995 E-score. For the sequence CTGCATCC, the binding signal was -0.276 E-score. As to AACTCTGT, the binding signal was -0.0165 E-score. As for TCCCCAGA, the figure is -0.0439 E-score; as for ATTAGATA, -0.011 E-score; as for CTAATCCA, -0.0301 E-score. For the sequence GGTCACGA, the binding signal is -0.0316 E-score.

Consider CACCAAAA, for which the binding signal was determined as 0.217 E-score. As for CTGGTGGA, the figure is -0.0855 E-score; as for ACTTTTGC, -0.146 E-score. As for ATGACAAT, the binding signal is -0.254 E-score. CAACCAGC: the binding signal was -0.0553 E-score. With TACGCTCA the figure was -0.0696 E-score; with CCGTCACA, 0.0847 E-score. Turning to CTCGCAGC, the binding signal was -0.277 E-score. As for ATCGTTCC, the figure is -0.162 E-score; as for CAGAGCTG, -0.0208 E-score. As for CGTCGTAG, the figure is -0.149 E-score; as for TCCTCGAA, -0.206 E-score; as for ACTAACAT, -0.156 E-score.

In the case of ATCTTGGC, the binding signal is -0.256 E-score. Consider CCGTCACC, for which the binding signal was -0.124 E-score.

GGAACCAA: the binding signal amounted to 0.0062 E-score.

As to ATAGGGCC, the binding signal was -0.235 E-score.

For ATGAGCAA, the binding signal was -0.138 E-score.

As for ATAGTCCA, the binding signal is -0.124 E-score. For the sequence AAAGCCCA, the binding signal was -0.155 E-score. For the sequence ATTCACGG, the binding signal is -0.213 E-score.

Turning to GTGGCGGA, the binding signal is 0.103 E-score. With ATAGGAAT the figure was -0.156 E-score; with CCTTCTGC, -0.0398 E-score. With GATGACCA the figure was -0.251 E-score; with CGGGACGC, -0.0367 E-score. With ACGGGAAA the figure was -0.136 E-score; with ATATCTAG, -0.075 E-score. For the sequence ACCTGGTG, the binding signal was 0.322 E-score.

As for GACCACCA, the binding signal was -0.171 E-score. As for CGCATTAG, the binding signal was -0.0956 E-score. Regarding AAGCGTAG, the binding signal is -0.157 E-score.

The values above are taken from paper PMC10668032.
